# The list shows a part of the results.
# Experiments:
# Experiment in all cases: glycan array binding signal (z-score within array); higher = stronger binding
# Conditions in all cases: glycan notation: IUPAC condensed, linker removed
# [1] = molecular target: Gal(a1-3)Gal(b1-4)GlcNAc(b1-3)GalNAc
# In short: (§1)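 Columns mapping to the same glycan were averaged after glycan names were converted to IUPAC-condensed notation. The data come from 3228 arrays in the Consortium for Functional Glycomics database, limited to those with an available protein sequence. Binding is reported as a within-array Z-score averaged across arrays of one protein sequence and across linkers.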
# [2] = molecular target: Gal(a1-3)Gal(b1-4)GlcNAc(b1-6)GalNAc
# In short: as §1
# [3] = molecular target: Gal(a1-3)Gal(b1-4)[Fuc(a1-3)]GlcNAc
# In short: as §1
# [4] = molecular target: Gal(a1-3)Gal(b1-4)[Fuc(a1-3)]GlcNAc(b1-2)Man(a1-3)[Gal(a1-3)Gal(b1-4)[Fuc(a1-3)]GlcNAc(b1-2)Man(a1-6)]Man(b1-4)GlcNAc(b1-4)GlcNAc
# In short: as §1
# Gal(a1-3)GalNAc = molecular target: Gal(a1-3)GalNAc
# In short: as §1
# [5] = molecular target: Gal(a1-3)[Gal(a1-4)]Gal(b1-4)GlcNAc
# In short: as §1
# [6] = molecular target: Gal(a1-4)Gal(b1-3)GlcNAc(b1-2)Man(a1-3)[Gal(a1-4)Gal(b1-3)GlcNAc(b1-2)Man(a1-6)]Man(b1-4)GlcNAc(b1-4)GlcNAc
# In short: as §1
# Gal(a1-4)Gal(b1-4)Glc = molecular target: Gal(a1-4)Gal(b1-4)Glc
# In short: as §1
# Gal(a1-4)Gal(b1-4)GlcNAc = molecular target: Gal(a1-4)Gal(b1-4)GlcNAc
# In short: as §1
# [7] = molecular target: Gal(a1-4)Gal(b1-4)GlcNAc(b1-2)Man(a1-3)[Gal(a1-4)Gal(b1-4)GlcNAc(b1-2)Man(a1-6)]Man(b1-4)GlcNAc(b1-4)GlcNAc
# In short: as §1
# [8] = molecular target: Gal(a1-4)Gal(b1-4)GlcNAc(b1-3)Gal(b1-4)Glc
# In short: as §1
# Gal(a1-4)GlcNAc = molecular target: Gal(a1-4)GlcNAc
# In short: as §1
# Gal(a1-6)Glc = molecular target: Gal(a1-6)Glc
# In short: as §1
# Gal(b1-2)Gal = molecular target: Gal(b1-2)Gal
# In short: as §1
# Gal(b1-3)Gal = molecular target: Gal(b1-3)Gal
# In short: as §1
# Gal(b1-3)Gal(b1-4)GlcNAc = molecular target: Gal(b1-3)Gal(b1-4)GlcNAc
# In short: as §1
# [9] = molecular target: Gal(b1-3)Gal(b1-4)GlcNAc(b1-2)Man(a1-3)[Gal(b1-3)Gal(b1-4)GlcNAc(b1-2)Man(a1-6)]Man(b1-4)GlcNAc(b1-4)GlcNAc
# In short: as §1
# Gal(b1-3)GalNAc = molecular target: Gal(b1-3)GalNAc
# In short: as §1
# [10] = molecular target: Gal(b1-3)GalNAc(a1-3)[Fuc(a1-2)]Gal(b1-4)Glc
# In short: as §1
# [11] = molecular target: Gal(b1-3)GalNAc(a1-3)[Fuc(a1-2)]Gal(b1-4)GlcNAc
# In short: as §1
# [12] = molecular target: Gal(b1-3)GalNAc(b1-3)Gal(a1-4)Gal(b1-4)Glc
# In short: as §1
# [13] = molecular target: Gal(b1-3)GalNAc(b1-4)Gal(b1-4)Glc
# In short: as §1
# [14] = molecular target: Gal(b1-3)GalNAc(b1-4)[Neu5Ac(a2-3)]Gal(b1-4)Glc
# In short: as §1
# Gal(b1-3)GlcNAc = molecular target: Gal(b1-3)GlcNAc
# In short: as §1
# [15] = molecular target: Gal(b1-3)GlcNAc(a1-3)Gal(b1-4)GlcNAc
# In short: as §1
# [16] = molecular target: Gal(b1-3)GlcNAc(a1-6)Gal(b1-4)GlcNAc
# In short: as §1
# [17] = molecular target: Gal(b1-3)GlcNAc(b1-2)Man(a1-3)[Gal(b1-3)GlcNAc(b1-2)Man(a1-6)]Man(b1-4)GlcNAc(b1-4)GlcNAc
# In short: as §1
# [18] = molecular target: Gal(b1-3)GlcNAc(b1-2)Man(a1-3)[Gal(b1-3)GlcNAc(b1-2)Man(a1-6)]Man(b1-4)GlcNAc(b1-4)[Fuc(a1-6)]GlcNAc
# In short: as §1
# [19] = molecular target: Gal(b1-3)GlcNAc(b1-2)Man(a1-3)[GlcNAc(b1-4)][Gal(b1-3)GlcNAc(b1-2)Man(a1-6)]Man(b1-4)GlcNAc(b1-4)GlcNAc
# In short: as §1
# [20] = molecular target: Gal(b1-3)GlcNAc(b1-2)[Gal(b1-3)GlcNAc(b1-6)]Man(a1-6)[Gal(b1-3)GlcNAc(b1-2)Man(a1-3)]Man(b1-4)GlcNAc(b1-4)GlcNAc
# In short: as §1
# [21] = molecular target: Gal(b1-3)GlcNAc(b1-3)Gal(b1-3)GlcNAc
# In short: as §1
# [22] = molecular target: Gal(b1-3)GlcNAc(b1-3)Gal(b1-4)Glc
# In short: as §1
# [23] = molecular target: Gal(b1-3)GlcNAc(b1-3)Gal(b1-4)GlcNAc
# In short: as §1
# [24] = molecular target: Gal(b1-3)GlcNAc(b1-3)Gal(b1-4)GlcNAc(b1-6)[Gal(b1-3)GlcNAc(b1-3)]Gal(b1-4)Glc
# In short: as §1
# [25] = molecular target: Gal(b1-3)GlcNAc(b1-3)Gal(b1-4)[Fuc(a1-3)]GlcNAc(b1-6)[Gal(b1-3)GlcNAc(b1-3)]Gal(b1-4)Glc
# In short: as §1
# [26] = molecular target: Gal(b1-3)GlcNAc(b1-3)GalNAc
# In short: as §1
# [27] = molecular target: Gal(b1-3)GlcNAc(b1-6)Gal(b1-4)GlcNAc
# In short: as §1
# [28] = molecular target: Gal(b1-3)GlcNAc(b1-6)GalNAc
# In short: as §1
binder,measurement,setting,value
SalT (Orysata sativa) (protein) MTLVKIGLWGGNGGSAQDISVPPKKLLGVTIYSSDAIRSIAFNYIGVDGQEYAIGPWGGGEGTSTEIKLGSSEHIKEISGTHGPVYDLADIVTYLKIVTSANNTYEAGVPNGKEFSIPLQDSGHVVGFFGRSGTLIDAIGIYVHPILEQKLISEEDLNSAVDHHHHHH,glycan array binding signal (z-score),[1],-0.309
same,glycan array binding signal (z-score),[2],-0.302
same,glycan array binding signal (z-score),[3],-0.302
same,glycan array binding signal (z-score),[4],0.155
same,glycan array binding signal (z-score),Gal(a1-3)GalNAc,-0.308
same,glycan array binding signal (z-score),[5],-0.301
same,glycan array binding signal (z-score),[6],3.59
same,glycan array binding signal (z-score),Gal(a1-4)Gal(b1-4)Glc,-0.308
same,glycan array binding signal (z-score),Gal(a1-4)Gal(b1-4)GlcNAc,-0.308
same,glycan array binding signal (z-score),[7],1.88
same,glycan array binding signal (z-score),[8],-0.3
same,glycan array binding signal (z-score),Gal(a1-4)GlcNAc,-0.309
same,glycan array binding signal (z-score),Gal(a1-6)Glc,-0.307
same,glycan array binding signal (z-score),Gal(b1-2)Gal,-0.307
same,glycan array binding signal (z-score),Gal(b1-3)Gal,-0.305
same,glycan array binding signal (z-score),Gal(b1-3)Gal(b1-4)GlcNAc,-0.308
same,glycan array binding signal (z-score),[9],3.71
same,glycan array binding signal (z-score),Gal(b1-3)GalNAc,-0.308
same,glycan array binding signal (z-score),[10],-0.31
same,glycan array binding signal (z-score),[11],-0.305
same,glycan array binding signal (z-score),[12],-0.307
same,glycan array binding signal (z-score),[13],-0.307
same,glycan array binding signal (z-score),[14],-0.306
same,glycan array binding signal (z-score),Gal(b1-3)GlcNAc,-0.308
same,glycan array binding signal (z-score),[15],-0.308
same,glycan array binding signal (z-score),[16],-0.307
same,glycan array binding signal (z-score),[17],3.69
same,glycan array binding signal (z-score),[18],1.96
same,glycan array binding signal (z-score),[19],0.063
same,glycan array binding signal (z-score),[20],2.28
same,glycan array binding signal (z-score),[21],-0.312
same,glycan array binding signal (z-score),[22],-0.306
same,glycan array binding signal (z-score),[23],-0.309
same,glycan array binding signal (z-score),[24],-0.309
same,glycan array binding signal (z-score),[25],-0.302
same,glycan array binding signal (z-score),[26],-0.31
same,glycan array binding signal (z-score),[27],-0.309
same,glycan array binding signal (z-score),[28],-0.307

# Source: the supplement of paper PMC8728848
